# Data reported in the supplement of paper PMC11417369.
# The list shows a part of the results.
# Tested on: PF3D7_0420300 AP2 domain 1 (GST-tagged)
# Test: gcPBM binding intensity (ln(normalized median fluorescence intensity)); higher = stronger DNA binding
# In short: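 Binding intensity is defined as the maximum Masliner-normalised natural-log median intensity across replicate spots for either probe orientation. It was measured on an Agilent 4 × 180k array of primer-extended double-stranded 36-bp intergenic genomic probes and negative controls, to which GST-tagged P. falciparum DNA-binding domains made in E. coli were applied for 1 h in 1× PBS with 1% milk, 0.2 mg/ml BSA, 0.5% salmon testes DNA and 0.03% Triton X-100. Detection was by Alexa488 anti-GST antibody and scanning at 488 nm.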
row,Sequence,gcPBM binding intensity (ln)
1,ATAAATCATAAGGAGAGTACATAAATAAAATAATCA [XGTACX_site8825],9.35
2,CTCAATATATTTGATTTACACACTTACAATGTATAT [CACACA_site8982],9.46
3,TATTAAAGATACTCGGTATAAATAAATTTTAATGTG [XGTACX_negctrl_site239],9.15
4,AAGTGGCATATAAGTAAAAAATATATACAAGTATAT [GTGCAC_negctrl_site427],9.31
5,ATGCTTATTATTTATTGTACTGAATAAATATATCTG [XGTACX_site4483],9.36
6,ACAACATGCACACGCACACACAAAAAAAGCATGCAT [CACACA_site6185],9.82
7,TTATTTCTACCTTTTTGTACACATTATTATGAAACC [XGTACX_site5325],9.41
8,TATAAAAAATATAATTGTACATAAAGGTTAAAATGT [XGTACX_site6138],9.47
9,AAACAAAAAAGAAACACACACTAATTAAATTTTCTT [CACACA_site4746],9.77
10,TAAATTAATAAAAAGTGTACATAATATACATATATA [XGTACX_site8604],9.29
11,TACAATACCGTACAGGTGCAACTAGCCAAAAAAAAG,9.46
12,ATAATTAAAAAAGGAATATATATATATATATATATA [GTGCAC_negctrl_site343],8.95
13,CGTATGACATAATATTGTACTTTTGATATACATCAT [XGTACX_site7366],9.13
14,TTTAATAATATTTAGGTGCTATATATTATATGTATA,9.12
15,AAAAAAAAAAAAAACACACAAATCATAAATAAATAT [CACACA_site6362],9.56
16,AAAAAAAAAATTGAAAGTACAAATATGTATTATATA [XGTACX_site2455],9.21
17,TAATAGTATATAAAAAGTACATAATAAGATATGAAA [XGTACX_site1000],9.38
18,ATTATGTGCCAATACACACACACATATATATATATA [CACACA_site468],9.9
19,TAAAATATGTCATGTGGTACATGAATAGCTTTTATT [XGTACX_site3809],9.25
20,AAGGAATAGGCATATACACACAGGTACAGATATATA [CACACA_site4402],9.7
21,TTTAAATATTACATATGTACTTATAAATATATATAT [XGTACX_site1284],9.13
22,TTTTTTTAAATATACACACACATTTATACAGATATA [CACACA_site5811],9.65

row,Sequence,gcPBM binding intensity (ln)
1,TTTCTAAAAATAAGAACACACACATATAAGCATATA [CACACA_site8714],9.71
2,ATATCATTTTCTAGCACACACATTGTTATTACCTTG [CACACA_site902],9.86
3,AGTCTGAATAAAATTACACACATATACAGATATATA [CACACA_site5054],9.43
4,TATGTATAATTTCATTGTACTTTTGATATTATCATA [XGTACX_site280],9.12
5,TATTAGAACATATATGCATGCAATAGATATTCCAAT [TGCATGCA_site297],9.1
6,ACTGCGTTTTTACACGCGCACTGCAATGAACAATAT,9.14
7,TATGTAACAAAAAAAAGTACACATATATATAGTGTA [XGTACX_site7772],9.48
8,AAGATAATCACAAAATGTACAGGAAATATGACAACC [XGTACX_site3607],9.71
9,AAGAAAAAGGAACGGAAAAACAAACAAGGGGCCCAA [TGCATGCA_negctrl_site4],9.75
10,AATGGTATAAACAATACACACATAATATATATATTG [CACACA_site4997],9.66
11,TTTTCTAAATTAATAATACACACTTGCTAAAATCAT [CACACA_site3207],9.11
12,ATTTAAGCATTATTTTGTACGAAAATAAAAAAATGA [XGTACX_site6958],9.01
13,ATATAAAAAAATAAAACACACACATATATATTATAT [CACACA_site8909],10.1
14,AGTGGTGTTAAATGTTGTACGATTTTGTGTTATTCG [XGTACX_site178],9.49
15,TTTTTGTTATATAAAGTGCAGTGACAAGCAGTTTAA,9.04
16,TATAATGCTCTTCTTTGTACATATTATGATTATATT [XGTACX_site2332],9.51
17,ATATATATATAATATAGTACGTATAATATATGAATC [XGTACX_site4385],9.48
18,AAAGGAAAATGTGTAAAAAGAAATGCTAGGTATATA [GTGCAC_negctrl_site699],9.61
19,TAATGCCATAATACGTGTACTTAATATATTAGAACA [XGTACX_site5809],9.2
20,TACATACATACATACACACATACATATGTATATATA [CACACA_site2480],9.59
21,CTCAAATGTTATTGTAGTACCTAAAAAATATATTCT [XGTACX_site1970],9.05
22,GTTGGTAGGCGGTACGGTACACGTAAAGTTTTTCTT [XGTACX_site7706],9.34
